{
  "source": "PubChem BioAssay AID2546",
  "about": "(National Center for Advancing Translational Sciences (NCATS), 2010)",
  "note": "Out of some 310,000 compounds screened, about 11,000 (3.5%) were called active. The inconclusive results got no clear call from the source; some entries with a clear call stand among them for comparison. Calls come from the whole dose curve; as a rule, active = well fitted inhibition curve with a large enough effect; inconclusive = small, poorly fitted or top-dose-only effect, or effect the other way; inactive = flat fitted curve, though single readings scatter. No potency is given beside an inconclusive call; the fits are too rough. Potency is the fitted concentration of half-maximal effect; tags give direction and shape of the fitted curve.",
  "data": [
    {"experiment": "VP16 counterscreen qHTS for inhibitors of ROR gamma transcriptional activity;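 note: Gal4-VP16 expression switched on by copper sulfate through the metallothionein promoter; nearly all actives have a fitted effect of over 50% in size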", "settings": "Drosophila S2 Gal4-VP16 UAS-luciferase, luminescence, 20 h; series mostly up to 53.6 µM", "values": [
      {"smiles": "O=C(COc1ccccc1[N+](=O)[O-])N/N=C/C=C/c1ccco1", "Potency": "inconclusive [inhibitor, single point]"},
      {"smiles": "N#CCCn1c(=O)c(-c2cc(F)cc(F)c2)nc2cnc(OCc3ccccc3)nc21", "Potency": "inactive"},
      {"smiles": "O=C(O)c1ccc(Nc2cc(Cl)c3nonc3c2[N+](=O)[O-])cc1", "Potency": "inactive"},
      {"smiles": "Cc1ccc2oc(NC(=O)N3CCOCC3)cc(=O)c2c1", "Potency": "inactive"},
      {"smiles": "Cc1cccc(Cc2cnc(N3C(=N)SC(C)C3=O)s2)c1", "note": "(stereo not given)", "Potency": "active: 1.12 µM"},
      {"smiles": "COc1cc(/C=N/Nc2ccc(C(=O)O)cc2)cc(OC)c1OC", "Potency": "inconclusive [inhibitor, full curve]"},
      {"smiles": "COC(=O)CCCC1=CC2=CC(=O)C(C)(OC(=O)c3cccs3)C(=O)C2=CN1C1CCCCC1", "note": "(stereo not given)", "Potency": "inactive"},
      {"smiles": "Cc1cccc(N=Nc2c(C)[nH]n(C(N)=S)c2=O)c1C", "Potency": "active: 1.58 µM"},
      {"smiles": "O=C(CCCN1C(=O)S/C(=C\\c2ccccc2)C1=O)NNC(=O)c1ccccc1O", "Potency": "active: 2.51 µM"},
      {"smiles": "CCn1c2ccccc2c2cc(/C=N/NC(=O)c3ccccc3C)ccc21", "Potency": "inconclusive [inhibitor, single point]"},
      {"smiles": "Cc1ccc(/C(=N/Nc2nc3ccccc3s2)C2=C(O)c3ccccc3C2=O)cc1", "Potency": "inconclusive [inhibitor, single point]"},
      {"smiles": "NC(=S)N/N=C/c1cn(-c2ccccc2)nc1-c1cccnc1", "Potency": "active: 8.91 µM"},
      {"smiles": "Cc1nc(Nc2ccccc2F)c2oc3ccccc3c2n1", "Potency": "inconclusive [activator, partial curve]"},
      {"smiles": "COc1ccc(-n2c(-c3ccc(Cl)cc3Cl)n[nH]c2=S)c(OC)c1", "Potency": "active: 6.31 µM"},
      {"smiles": "Cc1cccc(-n2nc3c(c2NC(=O)CCCl)CSC3)c1", "Potency": "inactive"},
      {"smiles": "CCOC(=O)C1(CC2CC2)CCN(C(=O)c2cc(C3CC3)nc3ccccc23)CC1", "Potency": "inactive"},
      {"smiles": "CSc1nc(C)cc(SC(C(C)=O)C(=O)Nc2ccccc2)n1", "note": "(stereo not given)", "Potency": "inconclusive [inhibitor, single point]"},
      {"smiles": "Cc1cccc(N2C(=O)C(Oc3ccc(Cl)cc3Cl)C2C(=O)O)c1C", "note": "(stereo not given)", "Potency": "inconclusive [inhibitor, partial curve]"},
      {"smiles": "Cc1nc(C(=O)NNC(=O)c2ccc(Cl)cc2)cs1", "Potency": "inconclusive [inhibitor, single point]"},
      {"smiles": "Cc1c(CCC(=O)NCCCN2CCCC2=O)c(=O)oc2c(C)c(O)ccc12", "Potency": "inactive"},
      {"smiles": "S=C(NCCc1ccccc1)Nc1cccc2cnccc12", "Potency": "active: 4.47 µM"},
      {"smiles": "CCOc1ccc(-c2nnc(-c3ccc(OC)cc3)o2)cc1", "Potency": "inconclusive [inhibitor, partial curve]"},
      {"smiles": "CSc1cccc(NC(=O)Nc2ccc(Cl)cc2)c1", "Potency": "inactive"},
      {"smiles": "CCN(CCCn1c(=S)[nH]c2ncccc2c1=O)c1ccccc1", "Potency": "active: 3.98 µM"},
      {"smiles": "Cc1cc(=O)n2[nH]c(SCc3ccc(Cl)cc3)nc2n1", "Potency": "inactive"},
      {"smiles": "Cc1ccc(NC(=O)c2nc(S(=O)(=O)Cc3ccccc3C)ncc2Cl)cc1C", "Potency": "active: 5.01 µM"},
      {"smiles": "CCOC(=O)C1CCN(C(=O)c2cc3ccccc3oc2=O)CC1", "Potency": "inconclusive [activator, full curve, poor fit]"},
      {"smiles": "NC(=S)N=Nc1c(O)[nH]c2c(Br)cc(Br)cc12", "Potency": "active: 11.2 µM"},
      {"smiles": "Cc1ccccc1C(=O)NC(=S)Nc1ccccc1C(F)(F)F", "Potency": "inconclusive [inhibitor, single point]"},
      {"smiles": "Cc1ccc(Nc2cc(C)nn2-c2nc(C)cc(C)n2)cc1", "Potency": "active: 3.16 µM"},
      {"smiles": "COC(=O)c1cc(S(=O)(=O)N2CCN(c3ccccc3OC)CC2)cn1C", "Potency": "inactive"},
      {"smiles": "CC(C)N(Cc1nc(-c2ccc(Cl)cc2)no1)C(=O)CCC1CCCC1", "Potency": "inconclusive [inhibitor, single point]"},
      {"smiles": "Cc1cc(Cl)n2c(nc3cc(F)c(F)cc32)c1C#N", "Potency": "active: 7.08 µM"},
      {"smiles": "c1ccc2c(c1)CCN(c1nc(CN3CCOCC3)nc3sc4c(c13)CCCC4)C2", "Potency": "inconclusive [inhibitor, single point]"},
      {"smiles": "CSCC[C@H](NC(=O)COc1ccc(Cl)cc1)c1nc2ccccc2[nH]1", "Potency": "inconclusive [activator, single point]"},
      {"smiles": "N/C(CSc1ccc(Cl)cc1)=N\\S(=O)(=O)c1ccc(Cl)cc1", "Potency": "inactive"},
      {"smiles": "O=C(N/N=C1\\CCc2ccccc21)c1ccccc1O", "Potency": "inconclusive [inhibitor, single point]"},
      {"smiles": "CCc1c(C(=O)NNC(=S)NC2CCCCC2)csc1C", "Potency": "inconclusive [inhibitor, partial curve]"},
      {"smiles": "Cc1csc(Nc2ccccc2)[n+]1C", "Potency": "inactive"},
      {"smiles": "Cc1nc(SCC(=O)c2cccc([N+](=O)[O-])c2)n[nH]1", "Potency": "inconclusive [inhibitor, single point]"},
      {"smiles": "Cc1ccc(C)c(-c2csc(NC(=O)c3cnccn3)n2)c1", "Potency": "active: 1.26 µM"},
      {"smiles": "CCC1CCCCN1C(=O)COc1c(Br)cc(Br)c2cccnc12", "note": "(stereo not given)", "Potency": "inconclusive [inhibitor, single point]"},
      {"smiles": "CSc1n[nH]c(=O)n1-c1cccc(Cl)c1", "Potency": "inactive"},
      {"smiles": "CCn1c(=N)n(CC(=O)c2ccc(Br)s2)c2ccccc21", "Potency": "inconclusive [inhibitor, single point]"},
      {"smiles": "CC(=O)Nc1sc(N/N=C\\c2ccccc2F)nc1-c1cccs1", "Potency": "inconclusive [inhibitor, single point]"},
      {"smiles": "CCOC(=O)N1CCC(NC(=O)C2CCN(C(=O)c3cc4oc(C)cc4n3Cc3c(F)cccc3Cl)CC2)CC1", "Potency": "inconclusive [inhibitor, single point]"},
      {"smiles": "O=C(NNC(=O)c1cccnc1SCc1cccc([N+](=O)[O-])c1)c1ccc(F)cc1", "Potency": "inconclusive [inhibitor, single point]"},
      {"smiles": "COc1ccc2c(c1)CC/C(=C/c1ccncc1)C2=O", "Potency": "inconclusive [activator, single point]"},
      {"smiles": "O=C(NCc1ccccc1)c1ccc(C2SCC(=O)N2Cc2ccccc2)cc1", "note": "(stereo not given)", "Potency": "inconclusive [inhibitor, partial curve, poor fit]"},
      {"smiles": "CCOC(=O)C(NC(=O)c1cccc(Cl)c1)(OCc1ccc(F)cc1)C(F)(F)F", "note": "(stereo not given)", "Potency": "active: 20 µM"}
    ]}
  ]
}
